Values joined by “and” are separate entries in the source; they are usually repeats but may differ in a detail not shown here. Identical values can stand only once. The whole screen tested about 94,000 compounds, of which about 6,200 (6.6%) were called active. The shares of active, inactive and inconclusive entries below differ from those in the screen. Calls follow the shape of the dose curve; as a rule, active = well fitted inhibition curve with a large enough effect; inconclusive = small, poorly fitted or top-dose-only effect; inactive = flat fitted curve, though single readings scatter. Potencies of inconclusive entries are doubtful fits and often do not repeat.
Experiment: Cytotoxic Profiling in HEK 293 Cell Line of Diverse Libraries Using Quantitative High-Throughput Screening; also: nearly all actives have a fitted effect of over 60% in size
Settings: HEK 293 viability, ATP luminescence (CellTiter-Glo), 48-72 h; activity change, negative = cytotoxicity: at 115 µM (top of the series) unless noted; series mostly up to 115 µM
Method in brief: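 ATP-coupled CellTiter-Glo luminescence served as viability read-out, recorded 10 min after reagent addition at room temperature. HEK 293 cells, 250 cells/well, had been incubated with pintool-transferred compound for 48 or 72 hr at 37 degree Celsius.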
In the case of COc1ccc(-c2ccc3nc(-c4c(F)c(F)cc(F)c4F)oc3c2)c(OC)c1OC, the Potency is reported as inconclusive: 50.1 µM [inhibitor, partial curve, poor fit]. With COc1ccccc1CN1CCN(C(=O)CC2CCOCC2)CC1 the “activity change, negative = cytotoxicity” value was inactive: -19%. With N#Cc1cccc(CN2C[C@H](O)C[C@H]2c2nc(-c3ccc(F)cc3)no2)c1 the Potency was inconclusive: 100 µM [inhibitor, partial curve]. With CCN1c2cc(C(=O)N3CCN(c4ccccc4F)CC3)ccc2C(=O)N2CCCCC21 (stereo unspecified) the Potency was inconclusive: 50.1 µM [inhibitor, partial curve, poor fit]. With O=C(C1CCCN(Cc2cccc(-c3cccs3)c2)C1)N1CCN(Cc2ccccc2)CC1 (stereo unspecified) the Potency was inconclusive: 50.1 µM [inhibitor, partial curve, poor fit]. With O=C(C1CCCC1)N1CCC2(C1)C(=O)N(CCc1ccccc1)c1ccccc12 (stereo unspecified) the Potency was active: 39.8 µM and inconclusive: 39.8 µM [inhibitor, partial curve, poor fit]. With c1ccc(Oc2ccc(Nc3ncc(-c4cncnc4)c4c3OCC4)cc2)cc1 the Potency was inconclusive: 56.2 µM [inhibitor, partial curve, poor fit]. For CN(C)CC1(O)CCC2(CCN(C(=O)C3(c4ccccc4)CC3)CC2)CC1, the Potency was inconclusive: 89.1 µM [inhibitor, single point]. For COC(=O)C[C@H]1CN(C(=O)OC(C)(C)C)CCN1, the “outcome” value was “inactive [at 172 µM]”. In the case of CCOC(=O)CC(=O)N1CCC(=O)N(CC(=O)OCC)c2ccccc2C(OC)C1 (stereo unspecified), the Potency is reported as inconclusive: 39.8 µM [inhibitor, single point]. With C[C@@H]1C(=O)O[C@H]2[C@H]1CC[C@@]1(C)Cc3sc(NC(=O)c4c(F)cccc4F)nc3[C@@H](C)[C@H]21 the Potency was inconclusive: 17.8 µM [inhibitor, partial curve, poor fit]. For COC(=O)c1ccc2nc(C[C@@H]3C[C@@H](C(C)C)[C@H](CNC4CCN(C(C)=O)CC4)C=C3C)[nH]c2c1, the Potency was inconclusive: 79.4 µM [inhibitor, partial curve]. With CC(C)c1nc2ccccc2n1CCNC(=O)Cn1nc2c(cc1=O)CCCCC2 the “activity change, negative = cytotoxicity” value was inactive: 4.33%. With O=C1[C@H]2CN(Cc3cc(Cl)ccc3F)C[C@H]2C(=O)N1CCc1ccccc1 the Potency was inconclusive: 89.1 µM [inhibitor, single point]. For COc1ccc(C(=O)N2CCN(c3cc(-c4ccc(F)cc4)[nH]n3)CC2)cc1OC, the Potency was inconclusive: 56.2 µM [inhibitor, partial curve, poor fit]. With O=C(NC1CCCCCC1)c1cc2n(n1)CC(c1ccc3c(c1)OCO3)OC2 (stereo unspecified) the Potency was inconclusive: 50.1 µM [inhibitor, partial curve, poor fit]. In the case of Cc1ccc(-n2nc(C)c([C@@H]3C=C[C@@H](NCc4ccc(N(C)C)cc4)C3)c2C)cc1Cl, the Potency is reported as active: 8.91 µM. In the case of COc1cccc(NC(=O)Cn2c(=O)c(-c3noc(C)n3)c3n(c2=O)CCCCC3)c1, the Potency is reported as inconclusive: 89.1 µM [inhibitor, single point]. With COc1cc(F)ccc1-c1nc(-c2c(C)noc2C)cc2cc(C)oc12 the Potency was inconclusive: 89.1 µM [inhibitor, partial curve, poor fit]. In the case of COc1ccccc1CC(=O)NCCn1cccc1-c1nc(-c2ccccc2)no1, the Potency is reported as inconclusive: 89.1 µM [inhibitor, single point]. With COc1ccccc1-c1cccc(CN2CCC(NC(=O)Cc3ccc(C(F)(F)F)cc3)CC2)c1 the Potency was active: 11.2 µM. In the case of Cc1ccc2c(C(=O)N3CCN(C(C)C)CC3)cc(NC(=O)C(C)C)cc2n1, the Potency is reported as inconclusive: 89.1 µM [inhibitor, single point]. In the case of O=C(OCc1ccccc1)N1CCOCC12CCN(Cc1ccccc1)CC2, the Potency is reported as active: 25.1 µM. For CO[C@H]1[C@H](NC(=O)Cc2c[nH]c3ccccc23)c2ccccc2C12CCNCC2, the “activity change, negative = cytotoxicity” value was inactive: -8.88%. In the case of Cc1ccc(-c2cccc(CN3CCCC(NC(=O)Cc4ccccn4)C3)c2)cc1Cl (stereo unspecified), the “activity change, negative = cytotoxicity” value is reported as inactive: -20.4%. In the case of C[S+](=O)([O-])NCc1nnc2n1C(C(=O)NCc1cccc(C(F)(F)F)c1)CC2 (stereo unspecified), the “outcome” value is reported as “inactive”. With CC(C)[S+](=O)([O-])NCCNC(=O)c1cccc(-c2ccsc2)c1 the Potency was inconclusive: 89.1 µM [inhibitor, single point]. In the case of CN1CC(=O)N(c2ccc(Cl)cc2)Cc2c(NCC3CC3)ncnc21, the “activity change, negative = cytotoxicity” value is reported as inactive: 0.934%. For COc1ccc(-c2noc(COC(=O)C3=CN(C)S(=O)(=O)N=C3C)n2)cc1, the Potency was inconclusive: 56.2 µM [inhibitor, partial curve, poor fit]. For COc1ccc(C(C)NC(=O)c2noc(-c3ccc(C)cc3)n2)cc1OC (stereo unspecified), the Potency was inconclusive: 89.1 µM [inhibitor, single point]. For Cc1cccc(-c2nc3cc(C(=O)NCc4ccc(Cl)cc4)ccc3o2)n1, the Potency was inconclusive: 89.1 µM [inhibitor, single point]. With NC(=O)[C@@H]1CN(C(=O)c2cocn2)C[C@H]1COc1ccccc1 the “activity change, negative = cytotoxicity” value was inactive: -0.895%. With NC(=O)CCNC(=O)C1=C[C@@H](NC(=O)Nc2ccccc2Br)[C@@H](O)[C@H](O)C1 the “outcome” value was “inactive”. In the case of O=C(C1CCCN([S+](=O)([O-])c2cccs2)C1)N1CCC(c2nc3ccncc3[nH]2)C1 (stereo unspecified), the “outcome” value is reported as “inactive”. In the case of O=C(c1ccc(Cl)cc1)N1CC2(CCCN(CC3CCCCC3)C2)Cc2ccccc21 (stereo unspecified), the Potency is reported as inconclusive: 50.1 µM [inhibitor, partial curve, poor fit]. In the case of Cc1cnc(-c2ccncc2)n1CC1CCN(C(=O)CCCc2ccccc2)C1 (stereo unspecified), the “outcome” value is reported as “inactive”. In the case of O=c1cc(N2CCOCC2)oc2c(NC3CCOCC3)nccc12, the “activity change, negative = cytotoxicity” value is reported as inactive: -23.8% [at 172 µM]. With CCn1cc(S(=O)(=O)N2CCCCC2c2nc(CCOc3ccc(F)cc3)no2)cn1 (stereo unspecified) the Potency was active: 44.7 µM. In the case of O=c1[nH]c(N2CCOCC2)nc2c1CCN(Cc1cc(F)ccc1F)CC2, the “activity change, negative = cytotoxicity” value is reported as inactive: -22%. In the case of CS(=O)(=O)N1CCC(Cc2ccc(CN3CCCCC3)cc2)CC1, the Potency is reported as inconclusive: 50.1 µM [inhibitor, partial curve, poor fit]. With CCc1cccc2c(C(CC(=O)NCc3ccc4c(c3)OCO4)c3ccc(OC)c(OC)c3)c[nH]c12 (stereo unspecified) the Potency was active: 35.5 µM.

From PubChem BioAssay AID1345083 (National Center for Advancing Translational Sciences (NCATS), 2018)
% is scaled to controls: 0 for no effect and ±100 for the full control effect; potency is read from the fitted curve at half-maximal effect; tags tell the direction and shape of the fitted curve.
